According to PubChem BioAssay AID1671193 (National Center for Advancing Translational Sciences (NCATS), 2021):
Screen size: about 150,000 compounds; about 180 (0.12%) were called active. The shares of active, inactive and inconclusive entries below differ from those in the screen. The call rests on the fitted dose curve; in most records, active means well fitted cell-killing curve with a large enough effect; inconclusive means small, poorly fitted or top-dose-only effect, or effect the other way; inactive means flat fitted curve, though single readings scatter. Potencies beside an inconclusive call are fits to weak or partial responses and may not hold up.

Assay: GF-AFC viability counterscreen for inhibitors of alpha-synuclein gene (SNCA) expression; further: nearly all actives have a fitted effect of over 30% in size;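 on activity change, negative = cytotoxicity: 0% = DMSO-treated cells and -100% = medium-only wells without cells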
Settings: HEK-293-SNCA-luc viability, GF-AFC fluorescence, 24 h; activity change, negative = cytotoxicity: at 57.1 µM (top of the series) unless noted
Summary of the method: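 Cytotoxicity counterscreen: after 24 h compound treatment of genome-edited SNCA-luciferase HEK-293 cells, live-cell protease substrate GF-AFC read by fluorescence after 30 min; activity scaled between DMSO (0%) and medium-only (-100%), curves Hill-fitted.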
Potency means the concentration at half of the fitted maximal effect; tags describe the fitted curve by direction and shape.

| Compound | Potency | activity change, negative = cytotoxicity |
| --- | --- | --- |
| COC(=O)[C@@H]1Cc2c([nH]c3ccccc23)[C@H]2C[C@H](NCc3cccs3)C[C@@H](c3ccccc3)N21 | inconclusive: 22.4 µM [cytotoxic, partial curve] | – |
| CC(=O)N1CCCN(c2cc(Cl)nc3ccnn23)CC1 | – | inactive: 10.5% [at 87.6 µM] |
| COc1ccccc1N1CCN(CC[C@@H]2CC[C@H](O)[C@@H](C(=O)NC3CC3)O2)CC1 | inconclusive: 7.94 µM [cytotoxic, full curve, poor fit] | – |
| Nc1c(C(=O)Nc2ccccc2Br)sc2nc(-c3cccs3)ccc12 | inconclusive: 15.8 µM [rising, partial curve, poor fit] | – |
| Cc1cccn2c(=O)c3cc(C(=O)NCC(C)C)sc3nc12 | inconclusive: 10 µM [rising, partial curve, poor fit] | – |
| O=c1[nH]nc2n1CCC(NS(=O)(=O)Cc1cccc(F)c1)CC2 (centres undefined) | – | inactive: 13.7% |
| O=C(NCc1cc(F)ccc1F)C1CCN(c2cn[nH]c(=O)c2)C1 (centres undefined) | – | inactive: -0.532% |
| Cc1cc(C)c(CNC(=O)c2cc(-c3ccccc3F)cc3c2OCCN3C)c(=O)[nH]1 | inconclusive: 31.6 µM [cytotoxic, partial curve, poor fit] | – |
| O=C1CC(c2ccccc2)N(Cc2ccc3[nH]ccc3c2)CCCCCN1 (centres undefined) | inconclusive: 8.91 µM [cytotoxic, single point] | – |
| O[C@@H]1C[C@@H](c2nc(-c3ccc(F)cc3)no2)N(CC2CCCCC2)C1 | – | inactive: -15.5% [at 87.6 µM] |
| COc1ccc(C[C@H](C)NC[C@@H](O)c2ccc(O)c(NC=O)c2)cc1 | inconclusive: 6.7 µM [cytotoxic, single point] | – |
| O=C(Nc1cccc(Cl)c1)[C@@H]1C[C@@H](c2ccc(F)cc2)N([S+](=O)([O-])c2cccnc2)C1 | inconclusive: 35.5 µM [cytotoxic, single point] | – |
| CNC(=O)[C@@H]1CN(C(=O)c2ccoc2C)C[C@H]1c1nc(C)no1 | inconclusive: 39.8 µM [cytotoxic, single point] | – |
| Cc1ccc(C)c(S(=O)(=O)c2nnn3c2nc(NC2CCCCC2)c2sccc23)c1 | inconclusive: 15.8 µM [cytotoxic, partial curve, poor fit] | – |
| Fc1ccccc1CN1CCNc2cc(Nc3cccnc3)ncc2C1 | inconclusive: 15.8 µM [cytotoxic, partial curve, poor fit] | – |
| CC(C)C(=O)N1CCc2ccc(OCc3nc(C(=O)N4CCCC4)co3)cc2C1c1cccc(F)c1 (centres undefined) | – | inactive: -4.88% |
| COc1cccc([S+](=O)([O-])N2CCC3(CC2)CC(=O)Nc2ccccc2O3)c1 | – | inactive: -18.2% |
| COc1ccc(CCNC(=O)c2ccc3c(c2)N(Cc2ccc(F)cc2)C(=O)CS3)cc1OC | inconclusive: 10 µM [cytotoxic, partial curve, poor fit] | – |
| O=C1CCN(C(=O)c2ccccc2)CCCC(C(=O)NCc2cccc(C(F)(F)F)c2)CCN1 (centres undefined) | inconclusive: 8.91 µM [cytotoxic, single point] | – |
| Cc1cccc(-c2cccc(CN3CCC(N[S+](=O)([O-])c4ccccc4)CC3)c2)c1 | inconclusive: 5.62 µM [cytotoxic, single point] | – |

| Compound | Potency | activity change, negative = cytotoxicity |
| --- | --- | --- |
| COc1ccc(C(=O)N[C@H]2CO[C@H]3[C@@H]2OC[C@@H]3n2nnnc2Oc2ccc3c(c2)OCO3)cc1 | – | inactive: -21% |
| COc1ccc2sc(N(Cc3cccnc3)C(=O)C3CCCCC3)nc2c1 | inconclusive: 39.8 µM [cytotoxic, partial curve, poor fit] | – |
| O=C1CC2(CCN(Cc3cccc4ccccc34)CC2)Oc2cc(Cl)ccc21 | inconclusive: 28.2 µM [cytotoxic, single point] | – |
| COc1ccc(C(=O)N2CCC3(C2)C(=O)N(Cc2ccccc2)c2ccccc23)cc1 (centres undefined) | active: 11.2 µM | – |
| C[C@H](Oc1cc(-c2cnn(C3CCNCC3)c2)cnc1N)c1c(Cl)ccc(F)c1Cl | inconclusive: 21.2 µM [cytotoxic, single point] | – |
| CCc1noc(CC2CCOC3(CCN(S(=O)(=O)c4cccc(OC)c4)CC3)C2)n1 (centres undefined) | – | inactive: -10.2% |
| CC(C)CCNC(=O)CN1C(=O)CSc2ccc(S(=O)(=O)N3CCCCC3)cc21 | inconclusive: 14.1 µM [cytotoxic, partial curve, poor fit] | – |
| OC[C@H]1O[C@@H](O[C@H]2[C@H](O)[C@@H](CO)O[C@@H](OCc3ccccc3)[C@@H]2O[C@@H]2OC[C@](O)(CO)[C@H]2O)[C@H](O)[C@@H](O)[C@@H]1O | – | inactive: 4.87% [at 23.9 µM] |
| CCN(CC)CCNC(=O)c1ccc2c(=O)n3nc(Nc4ccccc4OC)sc3nc2c1 | inconclusive: 12.6 µM [cytotoxic, partial curve, poor fit] | – |
| CCN1C(C(=O)c2ccccc2)=C(OC(=O)c2ccccc2OC)c2ccccc2S1(=O)=O | inconclusive: 39.8 µM [cytotoxic, single point] | – |
| O=C(C1CC1)N1CC(Oc2ccc(-c3noc(C4CCOCC4)n3)cc2)C1 | inconclusive: 3.16 µM [cytotoxic, single point] | – |
| COc1cccc(/C=C/C(=O)Nc2ccc3nc(N4CCN(C)CC4)cc(C)c3c2)c1OC | inconclusive: 35.5 µM [cytotoxic, single point] | – |
| COc1ccc(-c2nc(C(C)C)nc3c2CCN(C(=O)Cc2ccc(F)cc2)CC3)cc1 | inconclusive: 39.8 µM [cytotoxic, single point] | – |
| Cc1ccc(-c2ccccc2CN2CCN(C(=O)c3ccccc3Cl)CC2)cc1Cl | – | inactive: -2.52% [at 12.5 µM] |
| COc1ccc(Cn2c(C(=O)O)c(CNCc3ccc(C)o3)c3ccc(C)cc32)cc1 | inconclusive: 12.6 µM [cytotoxic, partial curve, poor fit] | – |
| Cn1c(C(=O)N2CCN(c3ccccn3)CC2)nc2nc(-c3ccccc3)c(Cl)cc21 | inconclusive: 31.6 µM [cytotoxic, partial curve, poor fit] | – |
| Cc1c(-c2ccccc2)[nH]c2c(CNC(=O)c3ccc(=O)n(C)n3)cc(Cl)cc12 | inconclusive: 28.2 µM [cytotoxic, single point] | – |
| CN(C(=O)Cn1cc(S(=O)(=O)Cc2ccccc2Cl)c2ccccc21)c1ccccc1 | inconclusive: 12.6 µM [cytotoxic, partial curve, poor fit] | – |
| CC(NC(=O)Cn1c(=O)oc2cc(S(=O)(=O)NCc3ccccc3)ccc21)c1ccccc1 (centres undefined) | inconclusive: 15.8 µM [rising, partial curve, poor fit] | – |
| O=C1CCCCN1CCNc1ccc(-c2nc(-c3ccccc3F)no2)cn1 | inconclusive: 39.8 µM [cytotoxic, single point] | – |

| Compound | Potency | activity change, negative = cytotoxicity |
| --- | --- | --- |
| COc1ccc(C(=O)N2CCCC2c2nc(CCOCC3CC3)no2)cc1 (centres undefined) | inconclusive: 12.6 µM [cytotoxic, partial curve, poor fit] | – |
| CCOC(=O)c1scc(-c2ccccc2)c1S(=O)(=O)Nc1cc(Cl)c(OC)cc1OC | inconclusive: 39.8 µM [cytotoxic, single point] | – |
| COc1ccc(CNC(=O)CN(c2ccccc2OC)S(=O)(=O)c2ccc(C)cc2)cc1 | inconclusive: 39.8 µM [cytotoxic, single point] | – |
| CCOC(=O)c1sc(NC(=O)c2nc3ncccn3n2)c(C(=O)OC)c1C | inconclusive: 1.41 µM [cytotoxic, partial curve, poor fit] | – |
| O=c1oc2c(CN3CCOCC3)c(O)ccc2cc1-c1ccc(Cl)cc1 | inconclusive: 12.6 µM [rising, partial curve] | – |
| COc1ccc(-c2cc3c(cn2)CN(Cc2ccccc2)CCN3)cc1OC | – | inactive: -21% [at 87.6 µM] |
| COc1ccc(C(=O)N2CCC3(CCN(Cc4ccc(C#N)cc4)CC3)CC2)cc1 | inconclusive: 11.2 µM [cytotoxic, partial curve, poor fit] | – |
| Cn1c(CO[C@H]2CN(C(=O)C3CCOCC3)C[C@H]2F)nc2ccccc21 | – | inactive: 3.57% [at 87.6 µM] |
| O=C(c1ccncc1)N1CCc2nc3cc(-c4ccccc4Cl)[nH]n3c(=O)c2C1 | – | inactive: -7.17% |
| COc1ccc(C(=O)NC[C@H]2COCc3nc4cc(C(F)(F)F)ccc4n32)cc1 | inconclusive: 14.1 µM [cytotoxic, partial curve, poor fit] | – |
| Cc1cccc(-c2cnc3n[nH]c(-c4ccccc4)c3n2)c1 | inconclusive: 89.1 µM [cytotoxic, single point] | – |
| CCOC(=O)c1cc2c(=O)n3ccccc3nc2n(CCCOC)c1=NC(=O)C(C)(C)Oc1ccc(Cl)cc1 | inconclusive: 15.8 µM [rising, partial curve, poor fit] | – |
| CC(C)CCC(=O)NC1CCN(c2cnn(CC3CC3)c(=O)c2)CC1 | inconclusive: 4.47 µM [cytotoxic, single point] | – |
| CC(C)(C)c1ccc(-c2cc(C[C@H]3CNCC[C@H]3CC(=O)N3CCN(c4ccc(F)cc4)CC3)no2)cc1 | – | inactive: -4.65% |
| COc1cccc(-c2cn3cc(C(=O)NC4CC4)nc3s2)c1 | – | inactive: 5.68% [at 87.6 µM] |
| CC(C)N(Cc1ccccc1)C(=O)CN1C(=O)COc2ccc(S(=O)(=O)NC3CCCC3)cc21 | inconclusive: 12.6 µM [cytotoxic, partial curve, poor fit] | – |
| O=C(Cn1c(=O)n(-c2ccccc2Cl)c(=O)c2sc3ccccc3c21)N1CCCC1 | inconclusive: 0.891 µM [cytotoxic, full curve, poor fit] | – |
| CCN1c2cc(C(=O)Nc3ccc(C)cc3Cl)ccc2C(=O)N2CCCCCC21 (centres undefined) | inconclusive: 7.94 µM [rising, single point] | – |
| CCOC(=O)c1c(C)[nH]c(CCC(=O)NCCCN2CCN(c3cc(C)ccc3C)CC2)c1C | inconclusive: 39.8 µM [cytotoxic, single point] | – |
